Results reported in ChEMBL document CHEMBL4888484, “Replenishing the malaria drug discovery pipeline: Screening and hit evaluation of the MMV Hit Generation Library 1 (HGL1) against asexual blood stage Plasmodium falciparum ,using a nano luciferase reporter read-out” (2022).
The campaign covered roughly 150,000 compounds. About 540 (0.36%) showed an effect of 50% or more. The list shows a part of the results.

These compounds were tested on Plasmodium falciparum (assay: Primary screen in NF54 nanoGlo assay, in single point, at 2uM, 72h; a lower Z score goes with more inhibition). Details: timepoint 72 hour.
Type: functional, Erythrocyte

Row | Compound | % Inhibition [%] | Z score
1 | CO[C@H]1C[C@H]2CC[C@@H](C1)N2C(=O)c1snnc1C(C)C | -7 | 1.16
2 | COc1ccc(CCC(=O)N2CC[C@H](Oc3ccnc(C)n3)C2)cc1 | 0 | 0.07
3 | CN(CC(=O)N(C)Cc1nnc(-c2ccccc2)o1)Cc1cccnc1 | -7 | 1.1
4 | O=C(Nc1cc(C(F)(F)F)c[nH]c1=O)C(=O)N1CCCCCCC1 | 2 | -0.38
5 | CC(C)C[C@@H](CO)N(C)C(=O)c1ccncc1 | -9 | 1.57
6 | CCc1nc(NCc2cccnc2N2CCN(c3ccccn3)CC2)ncc1C | -3 | 0.37
7 | Cc1cccc([C@H]2C(=O)NCCN2C(=O)Cc2ccc(C)c(O)c2)c1 | -6 | 0.72
8 | NC(=O)c1ccnc(NCc2nc(-c3cccc(F)c3)c(-c3ccccn3)[nH]2)c1 | -10 | 1.73
9 | CCN(CCc1nccs1)C(=O)c1cccc(C(=O)O)c1 | -9 | 0.87
10 | CCN(CC)c1nnc(-c2ccc3c(c2)OCO3)n1C | -2 | 0.23
11 | Cc1nnc(NC(=O)c2ccoc2)s1 | -7 | 1.02
12 | COc1ccc(-n2nc3c(N4CCC[C@H](C(=O)NCc5ccccc5C)C4)nnc(C)c3c2C)cc1 | 19 | -2.18
13 | COc1ccc(-c2cn(C3CCN(c4ncccn4)CC3)nn2)cc1 | 6 | -1.17
14 | COc1ccc(F)c(CN2CCC[C@@]3(CCN(C(=O)c4cn[nH]c4)C3)C2)c1 | 4 | -0.77
15 | CCc1ncsc1NC(=O)c1ncccc1-n1ncc2ccccc21 | 1 | -0.22
16 | CC(C)c1cc(C(=O)OCC(=O)N2CCNC2=O)c2ccccc2n1 | -17 | 2.24
17 | CCCn1c(=O)c2ccccc2n(CC(=O)N2CCN(c3ccc(OC)cc3)CC2)c1=O | -5 | 0.7
18 | Cn1nccc1C(=O)NCCCc1ccccc1 | -5 | 1.07
19 | Cc1ccc(C)c(NC(=O)CN2C(=O)COc3ccc(C(=O)N4CCCC4)cc32)c1 | 1 | -0.07
20 | CCN1CCN(c2c(CN(C(=O)Cc3ccccc3)C(C)C)c(C)nn2-c2cccc(F)c2)CC1 | -4 | 0.79
21 | CC(=O)N1CC[C@H](Nc2ccc(C#N)nc2)c2ccc(F)cc2C1 | -9 | 0.94
22 | CCN(CC1CCCO1)C(=O)C1CCN(C)C(=O)C1 (stereo not given) | -3 | 0.39

Row | Compound | % Inhibition [%] | Z score
23 | CC(C)N1CCC(N(C)CC2CCCOC2)C1=O (stereo not given) | -1 | 0.08
24 | COC[C@H](NC(=O)c1cnn(C(C)C)c1)c1ccccn1 | 2 | -0.32
25 | Cc1nc[nH]c1-c1cc(C(C)(C)C)nc(N)c1C#N | -8 | 1.45
26 | CCn1cc(S(=O)(=O)NCCN2CCCC[C@@H]2CO)cn1 | -17 | 1.61
27 | Cc1cc(C#N)c(N2CCO[C@H](C3CC3)C2)nc1C | 5 | -0.99
28 | O=C(N[C@H](c1ccccc1)C1CCC1)N(CCO)C1CC1 | -6 | 0.83
29 | Cc1cccc(NC(=O)N2CCN(CCn3c(C)nc4cccnc43)CC2)c1C | -8 | 1.04
30 | COc1ccc(N2C[C@@H](NC(=O)c3ccc(S(=O)(=O)N4CCOCC4)cc3)CC2=O)cc1OC | -9 | 1.64
31 | Brc1ccc(-c2ccc(-c3nnc(-c4ccco4)o3)o2)cc1 | -7 | 1
32 | CCC=C(C)C(=O)NCCc1nccs1 | -1 | 0.1
33 | CCc1noc(C)c1C(=O)N(CC)c1cccnc1C | 3 | -0.49
34 | Cc1ccc(F)c(NC(=O)c2ccc(Cn3cc(Br)cn3)o2)c1 | 4 | -0.5
35 | Cc1cnc(CNC(=O)[C@H]2CC(=O)OC23CCCC3)cn1 | -7 | 1.32
36 | CCc1nc(C)c(C(=O)N[C@@H](C)C(=O)Nc2ccc(F)cc2C)o1 | -3 | 0.49
37 | CC[C@H](C)N(Cc1c(C(C)C)nn(-c2ccccc2)c1N(C)C)C(=O)C(C)C | -13 | 2.15
38 | Cc1noc(C)c1CN(C)C(=O)c1n[nH]c2c1COCC2 | -24 | 2.62
39 | O=C1C(N2C(=O)[C@H]3CCCN3C2=O)CCN1CCCc1ccccc1 (stereo not given in full) | 7 | -0.83
40 | CCCc1nnsc1C(=O)N[C@@H]1C[C@H]2C(=O)N(C)CC(=O)N2C1 | -4 | 0.39
41 | C=CCOc1nc2c(cc1C#N)CCC2 | 2 | -0.32
42 | Cc1cc(C)cc(CCNS(C)(=O)=O)c1 | -12 | 2.27
43 | CCNc1nc(C)c(C(=O)N2CCOC(C)(C)C2)s1 | -6 | 1.01
44 | CN(CCC1OCCO1)[C@@H](C(N)=O)c1cccc(F)c1 | 4 | -0.41

Row | Compound | % Inhibition [%] | Z score
45 | COc1ccc([C@@H](NCC#N)C(F)(F)F)cc1F | 2 | -0.25
46 | CCN1CCC(CC(=O)NC[C@H](O)c2ccc(F)cc2)CC1 | -4 | 0.68
47 | COc1ccc(CC(=O)Nc2cnn(-c3ncc(N(C)C)cn3)c2)c(Cl)c1 | -12 | 1.91
48 | Cc1ccn2c(C(=O)N3C[C@]4(C)C[C@H]3CC(C)(C)C4)nnc2n1 | -6 | 0.78
49 | Fc1ccc2sc(CCNc3ncc(Br)cn3)nc2c1 | -4 | 0.7
50 | Cc1cc(Cl)ccc1OCc1nc(-c2ccc(S(=O)(=O)N3CCOCC3)cc2)no1 | 0 | 0.07
51 | Cc1cccc(-c2noc(N3CCOCC3)c2CN(Cc2ccccc2)C(=O)c2cccc(F)c2)c1 | 3 | -0.36
52 | O=c1nc(Nc2ccc(N3CCCCC3)cc2)cn[nH]1 | -2 | 0.3
53 | COC(=O)[C@H](CO)NC(=O)C1Cc2ccccc2N(C)C1 (stereo not given in full) | -1 | 0.1
54 | Cc1ccccc1NC(=O)c1ccc(N2C(=O)[C@@H](C)CS2(=O)=O)cc1Cl | -8 | 1.06
55 | CN1CCN(C[C@H]2CCCN(C(=O)c3cc(F)cc(C#N)c3)C2)CC1 | -10 | 1.33
56 | COc1ccc(OC)c2c1cc(C(=O)N1C[C@@H]3C[C@@H](C1)C1CCCC(=O)N1C3)n2C (stereo not given in full) | -20 | 2.5
57 | C[C@H]1CN(C(=O)c2csc3ccccc23)CC(=O)N1 | -23 | 2.42
58 | CCN1C[C@H](NS(=O)(=O)c2cnn(C)c2C)[C@@H](OC)C1 | -13 | 1.68
59 | Cc1nonc1CN1CC[C@@]2(CCCN(C3CCCCC3)C2=O)C1 | -1 | 0.17
60 | O=C([C@H](O)c1ccccc1)N1CCc2[nH]c(-c3ccccc3)nc2C1 | -17 | 2.3
61 | Cc1cc(COCC(=O)N2CC3C(C2)C3(C)C)on1 (stereo not given) | -9 | 0.93
62 | Nc1nc2c(s1)CN(CCc1ccccc1)CC2 | 32 | -6.83
63 | CCO[C@H]1CC(NCc2ccccc2OC)[C@@]12CCCO2 (stereo not given in full) | -2 | 0.32
64 | CCC(C)(CC)[C@@](O)(C#CC[N+]1(Cc2ccccc2)CCCCC1)c1ccccc1 | 38 | -1.99
65 | COc1ccc(-c2c(O)nnc3c(-c4ccccc4)cnn23)cc1 | -17 | 2.12
66 | COCCN1C[C@H](O)C(C)(C)COCCC[C@H]2CN(Cc3ccc(OC(F)(F)F)cc3)CC[C@H]2CC1=O | 12 | -1.93

Row | Compound | % Inhibition [%] | Z score
67 | CO[C@@H](C)c1nc(CN(C)C(=O)c2cn(C)nc2C2CC2)cs1 | -5 | 0.7
68 | CCCS(=O)(=O)N(CCOC)CC(=O)N(Cc1ccc(Cl)cc1)C1CCN(C(=O)c2cccs2)CC1 | -16 | 2.19
69 | C[C@H]1CCCN(C2CCN(c3c4c(nc5ncnn35)CCCC4)CC2)C1 | -11 | 1.14
70 | Cc1oc(-c2cccc(F)c2F)nc1CN(Cc1ccccc1)CC1CC1 | -12 | 1.44
71 | COc1ccc(-c2cc(C(=O)N[C@@H](C)C(=O)N3CCN(C)CC3)no2)c(OC)c1 | -2 | 0.36
72 | CC[C@H](NCc1cc(C)c(OC(C)=O)c(C)c1)c1ccnn1C | -14 | 1.84
73 | CCNC(=O)N1CC=C(C(=O)Nc2ccccc2F)CC1 | -2 | 0.37
74 | CCC(C(=O)O)N1CCC2C(CCCN2Cc2ccccc2)C1 (stereo not given) | -10 | 1.57
75 | COc1ccc(S(=O)(=O)[C@H]2CS(=O)(=O)C[C@@H]2N2CCC(C(N)=O)CC2)cc1C | -2 | 0.28
76 | CN1CCN(CC[C@H]2CCCCN2C(=O)CCc2ccc(F)cc2F)CC1 | -2 | 0.47
77 | C[C@@]12CCCN1C(=O)N(C1CCN(c3ccccn3)CC1)C2=O | -22 | 2
78 | CCc1nnc2c(Oc3ccc(NC(=O)Cc4ccc(F)cc4)cc3)nc3ccccc3n12 | 7 | -0.78
79 | O=C(C1CC1c1cccc(F)c1)N1CCCC(CN2CCOCC2)C1 (stereo not given) | 0 | 0.01
80 | Brc1cncnc1NCc1ccc(N2CCCCC2)nc1 | -10 | 1.85
81 | Cn1cncc1-c1ccc(N2CCCC2)nc1 | -6 | 1.03
82 | C[C@@H](Cc1cccs1)NC(=O)c1cnn(C)c1 | 4 | -0.59
83 | CCc1[nH]nc(-c2cccs2)c1NC(=O)CC1CCCC1 | -2 | 0.26
84 | CCCc1nnc(C(=O)N(C)Cc2ccccc2)o1 | -12 | 2.07
85 | NC(=O)CN1CCCN(C(=O)c2ccsc2NC(=O)c2cccs2)CC1 | -10 | 1.38
